Data on 44 compounds can be found in publication PMC4336329 (PLoS ONE, 2015).

The structures appear in SMILES notation. In all, about 310,000 compounds went through this assay and about 2,200 (0.71%) showed an effect of 50% or more. Effects have a minus sign here. The list shows a part of the results.

The target in this assay is human ether-à-go-go-related gene (hERG) potassium channel (human, UniProt Q12809). As to the kind of experiment: primary screen, population patch clamp on CHO cells stably expressing hERG.
Sequence of human ether-à-go-go-related gene (hERG) potassium channel (Q12809 whole entry, looked up): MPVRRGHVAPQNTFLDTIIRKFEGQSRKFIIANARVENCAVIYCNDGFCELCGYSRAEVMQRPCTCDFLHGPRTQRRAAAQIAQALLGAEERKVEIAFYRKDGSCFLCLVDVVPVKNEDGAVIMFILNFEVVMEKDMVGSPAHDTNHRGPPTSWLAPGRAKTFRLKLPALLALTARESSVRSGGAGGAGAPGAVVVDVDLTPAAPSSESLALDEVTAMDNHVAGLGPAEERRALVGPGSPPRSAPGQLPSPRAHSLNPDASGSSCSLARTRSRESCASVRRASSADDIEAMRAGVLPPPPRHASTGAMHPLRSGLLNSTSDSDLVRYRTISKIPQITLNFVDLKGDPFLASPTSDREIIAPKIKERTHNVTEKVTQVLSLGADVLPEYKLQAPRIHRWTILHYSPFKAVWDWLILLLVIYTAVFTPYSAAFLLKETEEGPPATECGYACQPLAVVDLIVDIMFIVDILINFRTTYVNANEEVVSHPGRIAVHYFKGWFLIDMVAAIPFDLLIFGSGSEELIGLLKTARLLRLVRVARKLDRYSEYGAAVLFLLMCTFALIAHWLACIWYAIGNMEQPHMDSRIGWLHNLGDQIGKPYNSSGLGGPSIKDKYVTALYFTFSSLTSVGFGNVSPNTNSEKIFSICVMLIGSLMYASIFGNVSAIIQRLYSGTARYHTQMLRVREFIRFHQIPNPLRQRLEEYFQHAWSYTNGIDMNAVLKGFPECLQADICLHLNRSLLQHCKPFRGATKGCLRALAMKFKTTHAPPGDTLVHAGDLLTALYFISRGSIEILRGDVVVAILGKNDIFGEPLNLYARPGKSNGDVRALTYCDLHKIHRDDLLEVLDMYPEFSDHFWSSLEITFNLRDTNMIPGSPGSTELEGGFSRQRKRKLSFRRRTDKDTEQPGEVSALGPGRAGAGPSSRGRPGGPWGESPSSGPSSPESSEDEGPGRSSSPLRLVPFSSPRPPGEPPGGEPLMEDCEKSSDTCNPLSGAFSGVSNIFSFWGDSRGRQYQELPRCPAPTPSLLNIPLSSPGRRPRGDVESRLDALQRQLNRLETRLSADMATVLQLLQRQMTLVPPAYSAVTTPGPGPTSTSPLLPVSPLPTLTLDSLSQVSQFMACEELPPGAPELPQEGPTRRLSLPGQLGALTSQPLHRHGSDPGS
Take `CCC1CCc2sc(C(=O)NCc3ccccn3)cc2C1` (centres unmarked): the “hERG current change (%, negative = inhibition) at 1uM” value amounted to 10.8%.
With `COc1ccccc1C1/C(=C(/O)c2ccc(Cl)cc2)C(=O)C(=O)N1CCN1CCOCC1` (centres unmarked), the “hERG current change (%, negative = inhibition) at 1uM” value is 12.4%.
Next, `C[C@H](NC(=O)[C@@H]1Cc2ccccc2CN1)C(=O)NCC1CCC(C(=O)O)CC1.Cl` (some centres unmarked): 5.5%; `COc1ccc(CCNC(=O)C2CCCN(Cc3nc(-c4ccccc4C)oc3C)C2)cc1OC` (centres unmarked): -2.12%.
As for `COc1ccc(CN2CC(=O)N(c3ccc(Cl)cc3)C2=S)cc1OC`, the “hERG current change (%, negative = inhibition) at 1uM” value is reported as 15.5%.
Turning to `COc1ccccc1CC(=O)Nc1cc2oc3ccccc3c2cc1OC`, the “hERG current change (%, negative = inhibition) at 1uM” value was found to be 16.4%.
For `Cc1cccc(NC(=O)NCC(c2cccnc2)N2CCOCC2)c1` (centres unmarked), the “hERG current change (%, negative = inhibition) at 1uM” value was found to be 9.82%.
Regarding `COc1ccccc1N1CCN(C(=O)CCCn2nc(C)c([N+](=O)[O-])c2C)CC1`, the “hERG current change (%, negative = inhibition) at 1uM” value was -10.4%.
Next, `CSC1=NCCN1C(=O)c1c(F)cccc1F`: 7.21%; `O=c1c2cnn(-c3ccccc3)c2nc(-c2cccs2)n1-c1ccc(Cl)cc1`: 12%; `Cc1ccc(S(=O)(=O)N2[C@@H](c3ccc(Cl)cc3)C(C(=O)O)=CC[C@H]2c2cccc(Cl)c2)cc1`: 12.8%.
Next, `COC(=O)Cn1ncc(N2C3CC(CC(C)(C)C3)C2C)c(Cl)c1=O` (centres unmarked): 0.459%; `COc1ccc(CCNc2ccc(C(CC(N)=O)NC(=O)c3cc(C)cc(C)c3)cc2[N+](=O)[O-])cc1` (centres unmarked): 11%; `CC(C)C[C@H](NP(=O)([O-])O[C@@H]1O[C@@H](C)[C@H](O)[C@@H](O)[C@H]1O)C(=O)N[C@@H](Cc1c[nH]c2ccccc12)C(=O)[O-].[Na+]`: 5.52%.
Consider `COc1ccc(F)c(CN2CCCC(CNS(=O)(=O)c3cccc4cccnc34)C2)c1` (centres unmarked), for which the “hERG current change (%, negative = inhibition) at 1uM” value is listed as 14%.
On to `O=C(O)C1CCN(c2c([N+](=O)[O-])cc(C(F)(F)F)cc2[N+](=O)[O-])CC1`, for which the “hERG current change (%, negative = inhibition) at 1uM” value amounted to 5.68%.
As to `O=C(O)C1CC=CCC1C(=O)NNc1c(Cl)cc(Cl)cc1Cl` (centres unmarked), the “hERG current change (%, negative = inhibition) at 1uM” value is 9.44%.
Next, `CC(=O)NC1=C(NC2CCS(=O)(=O)C2)C(=O)c2ccccc2C1=O` (centres unmarked): 20.6%; `COC(=O)c1cccc(Oc2cccc(C(F)(F)F)c2)n1`: 6.73%; `CCCCc1nc2ccccc2c(NC(=O)CN2CCN(C)CC2)c1CCC.O=C(O)C(=O)O`: -2.05%.
Next, `COc1ccc(/C=C2\N=C(C)OC2=O)cc1OC(C)=O`: 6.81%.
Next, `NC(=O)NCCCC(=O)O`: 9.76%.
As for `CC1CCN(CCc2nc3ccccc3[nH]2)CC1`, the “hERG current change (%, negative = inhibition) at 1uM” value was -33.4%.
`COc1ccc(NC(=O)CC2C(=O)NCCN2C(=O)Nc2ccc(C(F)(F)F)cc2)cc1` (centres unmarked): the “hERG current change (%, negative = inhibition) at 1uM” value was determined as 15.4%.
Next, `COc1cc(C(=O)NNC(=O)C2CCCC2)cc(OC)c1OC`: 14.1%.
Next, `CC(C)N(C(=S)NCc1ccccc1)c1ccccc1`: 7.04%.
`CCOC(=O)C1CCN(C(c2cc3c(C)ccc(C)c3[nH]c2=O)c2nnnn2C2CCCCC2)CC1` (centres unmarked): the “hERG current change (%, negative = inhibition) at 1uM” value is given as -0.367%.
Next, `Cc1cc(-c2onc(C)c2C(=O)N/N=C/c2ccccc2)no1`: 11.4%.
Consider `COc1cc(/C=N/NC(=O)c2cccc3ccccc23)ccc1OCC(N)=O`, for which the “hERG current change (%, negative = inhibition) at 1uM” value is recorded as 6.89%.
Next, `Cc1cc(C)n(C(=O)c2ccc(S(=O)(=O)N3CCCC3)cc2)n1`: 12.5%; `O=C(O)COCC(=O)N1CCN(c2cc(C(F)(F)F)nc3ccccc23)CC1`: 18%.
Next, `COc1ccc(NCc2nc3ccccc3n2CCOc2ccccc2)cc1`: -4.64%; `CC(=O)c1ccc2c(c1)C1C=CCC1C(c1cc3c(cc1Br)OCO3)N2` (centres unmarked): 13.3%.
Next, `O=C(CSc1nnc(-c2ccccc2)o1)c1nnc(-c2ccccc2)o1`: 14.5%; `O=C1C2CC=C(Cl)CC2C(=O)N1CCC[n+]1cccc2ccccc21` (centres unmarked): 17.1%; `CCOC(=O)CC(NC(=O)CCc1c(C)nc2nc(C)nn2c1C)c1ccc(OC(C)C)cc1` (centres unmarked): 4.88%.
Consider `Cc1ncc(CO)c(/C=N/NC(=S)Nc2ccc(C(C)C)cc2)c1O`, for which the “hERG current change (%, negative = inhibition) at 1uM” value was found to be 12%.
Next, `CN1C(=O)C(=Cc2ccccc2OCc2ccc(C(=O)O)cc2)C(=O)N(C)C1=O`: 7.89%; `CC1SCC(NC(=O)c2ccccc2Cl)CS1` (centres unmarked): 11%; `CC(C)C[C@H](NC(=O)c1nc[nH]c1C(=O)NCC(=O)OC(C)(C)C)C(=O)OCc1ccccc1`: 12.9%.
As to `CCCN1CCC(=O)N([C@H](CN=[N+]=[N-])CC(C)C)CC1`, the “hERG current change (%, negative = inhibition) at 1uM” value was 11%.
For `CCOC(=O)CNC(=O)/C=C/c1c(Cl)cccc1Cl`, the “hERG current change (%, negative = inhibition) at 1uM” value stood at 11.1%.
As to `Cc1ccc(N=C2C(=O)Nc3ccc(Br)cc32)cc1`, the “hERG current change (%, negative = inhibition) at 1uM” value came to 11.9%.
Regarding `Cc1ccn2c(NC3CCCCC3)c(C(C)C)nc2c1`, the “hERG current change (%, negative = inhibition) at 1uM” value is -6.2%.
